Viability of KB3-1 and Nalm-6 cells after 48 h of drug alone (CellTiter-Glo), 11 doses over about 4.5 log units. % of DMSO wells, lower = more cell loss; AC50 from the fitted curve, lower = more potent. No active / inactive call. Nalm-6 was screened in two runs. AC50 is listed only for well-fitted inhibitory curves. KB3-1 is a HeLa-derived carcinoma line, Nalm-6 a B-cell precursor leukaemia line.
Assays:
KB3-1 [1] = test: viability (% of DMSO control); higher = more viable cells
Procedure: (§1)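 Eleven-dose screen of the NCATS MIPE 3 library on cells without co-treatment; CellTiter-Glo after 48 h, as % of DMSO wells.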

Nalm-6 [2] = test: as above
Procedure: as §1

KB3-1 [3] = test: log AC50 of viability decrease (48 h) (log10 M); higher = less potent
Procedure: (§2)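 Eleven-dose screen of the NCATS MIPE 3 library on cells without co-treatment; CellTiter-Glo after 48 h. AC50 from the curve fit; only inhibitory curves of the better fit classes are listed.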

Nalm-6 [4] = test: as above
Procedure: as §2

C[C@H]([C@H]1C\C(=C(CO)/C(=O)O1)C)[C@H]2CC[C@H]3[C@@H]4C[C@H]5O[C@]56[C@@H](O)\C=C/C(=O)[C@]6(C)[C@H]4CC[C@]23C [Withaferin A]
Details	log AC50 of viability decrease	viability [%]
KB3-1 [1], 0.00078 µM	–	104
KB3-1 [1], 0.00234 µM	–	99.1
KB3-1 [1], 0.00702 µM	–	104
KB3-1 [1], 0.0211 µM	–	98.7
KB3-1 [1], 0.0632 µM	–	98.3
KB3-1 [1], 0.19 µM	–	98.6
KB3-1 [1], 0.569 µM	–	85.4
KB3-1 [1], 1.71 µM	–	55.6
KB3-1 [1], 5.12 µM	–	44.1
KB3-1 [1], 15.4 µM	–	17.1
KB3-1 [1], 46.1 µM	–	1.34
Nalm-6 [2], run: 1, 0.00078 µM	–	116
Nalm-6 [2], run: 1, 0.00234 µM	–	109
Nalm-6 [2], run: 1, 0.00702 µM	–	109
Nalm-6 [2], run: 1, 0.0211 µM	–	105
Nalm-6 [2], run: 1, 0.0632 µM	–	76.7
Nalm-6 [2], run: 1, 0.19 µM	–	11.3
Nalm-6 [2], run: 1, 0.569 µM	–	3.67
Nalm-6 [2], run: 1, 1.71 µM	–	2.53
Nalm-6 [2], run: 1, 5.12 µM	–	1.98
Nalm-6 [2], run: 1, 15.4 µM	–	2.59
Nalm-6 [2], run: 1, 46.1 µM	–	0.486
Nalm-6 [2], run: 2, 0.00078 µM	–	108
Nalm-6 [2], run: 2, 0.00234 µM	–	113
Nalm-6 [2], run: 2, 0.00702 µM	–	103
Nalm-6 [2], run: 2, 0.0211 µM	–	97.4
Nalm-6 [2], run: 2, 0.0632 µM	–	64.5
Nalm-6 [2], run: 2, 0.19 µM	–	4.13
Nalm-6 [2], run: 2, 0.569 µM	–	2.45
Nalm-6 [2], run: 2, 1.71 µM	–	2.22
Nalm-6 [2], run: 2, 5.12 µM	–	2.34
Nalm-6 [2], run: 2, 15.4 µM	–	2.08
Nalm-6 [2], run: 2, 46.1 µM	–	0.771
Nalm-6 [4], run: 1	-7.08	–
Nalm-6 [4], run: 2	-7.13	–

Details	log AC50 of viability decrease
KB3-1 [3]	-5.43

Cc1cc(-c2ccc(CC(=O)Nc3ccc(-c4cccnc4)cc3)cc2)ccn1 [Wnt-C59]
Details	log AC50 of viability decrease	viability [%]
KB3-1 [1], 0.00078 µM	–	102
KB3-1 [1], 0.00234 µM	–	97.2
KB3-1 [1], 0.00702 µM	–	99.6
KB3-1 [1], 0.0211 µM	–	101
KB3-1 [1], 0.0632 µM	–	94.8
KB3-1 [1], 0.19 µM	–	93.9
KB3-1 [1], 0.569 µM	–	101
KB3-1 [1], 1.71 µM	–	96.3
KB3-1 [1], 5.12 µM	–	89.9
KB3-1 [1], 15.4 µM	–	81.1
KB3-1 [1], 46.1 µM	–	63.8
Nalm-6 [2], run: 1, 0.00078 µM	–	116
Nalm-6 [2], run: 1, 0.00234 µM	–	117
Nalm-6 [2], run: 1, 0.00702 µM	–	114
Nalm-6 [2], run: 1, 0.0211 µM	–	106
Nalm-6 [2], run: 1, 0.0632 µM	–	111
Nalm-6 [2], run: 1, 0.19 µM	–	112
Nalm-6 [2], run: 1, 0.569 µM	–	116
Nalm-6 [2], run: 1, 1.71 µM	–	110
Nalm-6 [2], run: 1, 5.12 µM	–	102
Nalm-6 [2], run: 1, 15.4 µM	–	77.3
Nalm-6 [2], run: 1, 46.1 µM	–	31.9
Nalm-6 [2], run: 2, 0.00078 µM	–	116
Nalm-6 [2], run: 2, 0.00234 µM	–	114
Nalm-6 [2], run: 2, 0.00702 µM	–	109
Nalm-6 [2], run: 2, 0.0211 µM	–	116
Nalm-6 [2], run: 2, 0.0632 µM	–	116
Nalm-6 [2], run: 2, 0.19 µM	–	109
Nalm-6 [2], run: 2, 0.569 µM	–	117
Nalm-6 [2], run: 2, 1.71 µM	–	111
Nalm-6 [2], run: 2, 5.12 µM	–	102
Nalm-6 [2], run: 2, 15.4 µM	–	88.2
Nalm-6 [2], run: 2, 46.1 µM	–	41
Nalm-6 [4], run: 1	-4.78	–
Nalm-6 [4], run: 2	-4.73	–

Details	log AC50 of viability decrease
KB3-1 [3]	-4.73

CCOc1cc(N2CCC(O)CC2)ccc1Nc1ncc2c(n1)N(C)c1ccccc1C(=O)N2C [XMD8-92]
Details	log AC50 of viability decrease	viability [%]
KB3-1 [1], 0.00078 µM	–	101
KB3-1 [1], 0.00234 µM	–	105
KB3-1 [1], 0.00702 µM	–	99.8
KB3-1 [1], 0.0211 µM	–	102
KB3-1 [1], 0.0632 µM	–	104
KB3-1 [1], 0.19 µM	–	104
KB3-1 [1], 0.569 µM	–	99.7
KB3-1 [1], 1.71 µM	–	95.1
KB3-1 [1], 5.12 µM	–	87.8
KB3-1 [1], 15.4 µM	–	76.3
KB3-1 [1], 46.1 µM	–	52.6
Nalm-6 [2], run: 1, 0.00078 µM	–	118
Nalm-6 [2], run: 1, 0.00234 µM	–	118
Nalm-6 [2], run: 1, 0.00702 µM	–	118
Nalm-6 [2], run: 1, 0.0211 µM	–	115
Nalm-6 [2], run: 1, 0.0632 µM	–	119
Nalm-6 [2], run: 1, 0.19 µM	–	115
Nalm-6 [2], run: 1, 0.569 µM	–	107
Nalm-6 [2], run: 1, 1.71 µM	–	95.9
Nalm-6 [2], run: 1, 5.12 µM	–	58.7
Nalm-6 [2], run: 1, 15.4 µM	–	54.7
Nalm-6 [2], run: 1, 46.1 µM	–	4.78
Nalm-6 [2], run: 2, 0.00078 µM	–	113
Nalm-6 [2], run: 2, 0.00234 µM	–	115
Nalm-6 [2], run: 2, 0.00702 µM	–	112
Nalm-6 [2], run: 2, 0.0211 µM	–	114
Nalm-6 [2], run: 2, 0.0632 µM	–	114
Nalm-6 [2], run: 2, 0.19 µM	–	114
Nalm-6 [2], run: 2, 0.569 µM	–	104
Nalm-6 [2], run: 2, 1.71 µM	–	91.7
Nalm-6 [2], run: 2, 5.12 µM	–	58.2
Nalm-6 [2], run: 2, 15.4 µM	–	46.2
Nalm-6 [2], run: 2, 46.1 µM	–	0.564
Nalm-6 [4], run: 1	-4.88	–
Nalm-6 [4], run: 2	-4.88	–

Details	log AC50 of viability decrease
KB3-1 [3]	-4.78

CC1CC(C)C(=O)C(C(O)CC2CC(=O)NC(=O)C2)C1 (centres undefined) [cycloheximide]
Details	log AC50 of viability decrease	viability [%]
KB3-1 [1], 0.00156 µM	–	93.4
KB3-1 [1], 0.00468 µM	–	97.5
KB3-1 [1], 0.014 µM	–	94.7
KB3-1 [1], 0.0421 µM	–	84.4
KB3-1 [1], 0.126 µM	–	66.2
KB3-1 [1], 0.379 µM	–	45.6
KB3-1 [1], 1.14 µM	–	29.5
KB3-1 [1], 3.41 µM	–	27.7
KB3-1 [1], 10.2 µM	–	23.6
KB3-1 [1], 30.7 µM	–	22.1
KB3-1 [1], 92.2 µM	–	13.6
Nalm-6 [2], run: 1, 0.00156 µM	–	91.6
Nalm-6 [2], run: 1, 0.00468 µM	–	100
Nalm-6 [2], run: 1, 0.014 µM	–	97.2
Nalm-6 [2], run: 1, 0.0421 µM	–	70.7
Nalm-6 [2], run: 1, 0.126 µM	–	53.5
Nalm-6 [2], run: 1, 0.379 µM	–	38.6
Nalm-6 [2], run: 1, 1.14 µM	–	28.7
Nalm-6 [2], run: 1, 3.41 µM	–	34.1
Nalm-6 [2], run: 1, 10.2 µM	–	50.1
Nalm-6 [2], run: 1, 30.7 µM	–	47
Nalm-6 [2], run: 1, 92.2 µM	–	35.6
Nalm-6 [2], run: 2, 0.00156 µM	–	105
Nalm-6 [2], run: 2, 0.00468 µM	–	97.1
Nalm-6 [2], run: 2, 0.014 µM	–	98
Nalm-6 [2], run: 2, 0.0421 µM	–	73.5
Nalm-6 [2], run: 2, 0.126 µM	–	56.4
Nalm-6 [2], run: 2, 0.379 µM	–	46.4
Nalm-6 [2], run: 2, 1.14 µM	–	24.6
Nalm-6 [2], run: 2, 3.41 µM	–	18.3
Nalm-6 [2], run: 2, 10.2 µM	–	50.6
Nalm-6 [2], run: 2, 30.7 µM	–	49.6
Nalm-6 [2], run: 2, 92.2 µM	–	48
Nalm-6 [4], run: 1	-7.27	–
Nalm-6 [4], run: 2	-7.27	–

Details	log AC50 of viability decrease
KB3-1 [3]	-6.72
